Measurements taken from PMC5892938.
This is one part of the list. At the low end of the ranking the order means little.

biological target: GST-SBP-SLBP (stem-loop binding protein) (UniProt Q14493); experiment: targeted RNA Bind-n-Seq; conditions: RBNS binding buffer: 25 mM Tris pH 7.5, 150 mM KCl, 3 mM MgCl2, 0.1% Tween, 0.5 mg/mL BSA, 1 mM DTT; 27 nM protein, 750 pM RNA pool; temperature not stated; high values mean tight binding;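 further: DESeq read counts versus GST-SBP nonspecific binding control pulldown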

Sequence | binding signal (log2 fold change)
GGUCACGUCUCAAUCAACUCUUCCUCAGGAGUUUACUCCUGUUUACUCAACAGCUCGCAGUCAAG | -0.0743
GGUCACGUCUCAAUCAACUCAGUCCCCAGGGAAACCCCUGGCUAAUUCAACAGCUCGCAGUCAAG | -0.148
GGUCACGUCUCAAUCAACUCAUCCUCAGGAGUUUUCUCCUGCUAUUUCAACAGCUCGCAGUCAAG | -0.0398
GGUCACGUCUCAAUCAACUCAUCUCCCAGGGAAAGCCCUGGCUAAUUCAACAGCUCGCAGUCAAG | -0.219
GGUCACGUCUCAAUCAACUCUUCCUCCAGGGAAAGCCCUGGUAAUCUCAACAGCUCGCAGUCAAG | -0.0682
GGUCACGUCUCAAUCAACUCUCAAGAGGGGGGGAAAACCCCUUUGCCCUCACCUUCAACAGCUCGCAGUCAAG | -0.448
GGUCACGUCUCAAUCAACUCAAUAGAGGGGGGGAAAACCCCUUUGCCCUCCAUAUCAACAGCUCGCAGUCAAG | 0.101
GGUCACGUCUCAAUCAACUCUACUCCCAGGGAAACCCCUGGUUUACUCAACAGCUCGCAGUCAAG | 0.0345
GGUCACGUCUCAAUCAACUCUUCUUCCAGGGAAAGCCCUGGUAUACUCAACAGCUCGCAGUCAAG | -0.0117
GGUCACGUCUCAAUCAACUCACAAGAGGGGGGGAAAACCCCUUUACCCUCAACAUCAACAGCUCGCAGUCAAG | -0.221
GGUCACGUCUCAAUCAACUCUAUCUCCAGGGAAAUCCCUGGUUAAUUCAACAGCUCGCAGUCAAG | -0.128
GGUCACGUCUCAAUCAACUCAAUUCCAGGAGUUUACUCCUGUUAACUCAACAGCUCGCAGUCAAG | 0.0784
GGUCACGUCUCAAUCAACUCAUCCUCAGGAGUUUACUCCUGUUAUUUCAACAGCUCGCAGUCAAG | 0.0496
GGUCACGUCUCAAUCAACUCUAUUUCAGGAGUUUGCUCCUGCUUAUUCAACAGCUCGCAGUCAAG | -0.106
GGUCACGUCUCAAUCAACUCUAACGAGGGGGGGAAAACCCCUUUGCCCUCAAAAUCAACAGCUCGCAGUCAAG | 0.247
GGUCACGUCUCAAUCAACUCAUCAGAGGGGGGGAAAACCCCUUUGCCCUCAUCAUCAACAGCUCGCAGUCAAG | -0.291
GGUCACGUCUCAAUCAACUCAACUCCAGGAGUUUACUCCUGCAAACUCAACAGCUCGCAGUCAAG | 0.0253
GGUCACGUCUCAAUCAACUCAUCCUCCAGGGAAAACCCUGGUAAUCUCAACAGCUCGCAGUCAAG | 0.137
GGUCACGUCUCAAUCAACUCAGUCCCCAGGGAAAUCCCUGGCAUUCUCAACAGCUCGCAGUCAAG | 0.0335
GGUCACGUCUCAAUCAACUCUUUUUCCAGGGAAACCCCUGGUAUACUCAACAGCUCGCAGUCAAG | 0.445
GGUCACGUCUCAAUCAACUCUAUUUCCAGGGAAAGCCCUGGUAUUCUCAACAGCUCGCAGUCAAG | 0.00323
GGUCACGUCUCAAUCAACUCUAACGAGGGGGGGAAAACCCCUUUACCCUCAACCUCAACAGCUCGCAGUCAAG | 0.18
GGUCACGUCUCAAUCAACUCAUCGUCAGGAGUUUCCUCCUGCAAUUUCAACAGCUCGCAGUCAAG | -0.0387
GGUCACGUCUCAAUCAACUCAUGUCCAGGAGUUUUCUCCUGUAUUUUCAACAGCUCGCAGUCAAG | 0.0148
GGUCACGUCUCAAUCAACUCAAUUCCCAGGGAAAGCCCUGGUAUUUUCAACAGCUCGCAGUCAAG | 0.0297

Sequence | binding signal (log2 fold change)
GGUCACGUCUCAAUCAACUCAUCUCCCAGGGAAACCCCUGGCUAUCUCAACAGCUCGCAGUCAAG | -0.163
GGUCACGUCUCAAUCAACUCACUCGAGGGGGGGAAAACCCCUUUACCCUCACAUUCAACAGCUCGCAGUCAAG | -0.0439
GGUCACGUCUCAAUCAACUCUUCUCCCAGGGAAAGCCCUGGUUAUCUCAACAGCUCGCAGUCAAG | -0.208
GGUCACGUCUCAAUCAACUCUUUCCCAGGAGUUUCCUCCUGUAUUCUCAACAGCUCGCAGUCAAG | -0.0405
GGUCACGUCUCAAUCAACUCAUCUCCAGGAGUUUCCUCCUGCAAAUUCAACAGCUCGCAGUCAAG | 0.116
GGUCACGUCUCAAUCAACUCAUCCUCAGGAGUUUCCUCCUGCAAAGUCAACAGCUCGCAGUCAAG | 0.259
GGUCACGUCUCAAUCAACUCAUCCCCCAGGGAAAUCCCUGGCUUUUUCAACAGCUCGCAGUCAAG | -0.131
GGUCACGUCUCAAUCAACUCUUCGUCAGGAGUUUUCUCCUGUAUUUUCAACAGCUCGCAGUCAAG | -0.0348
GGUCACGUCUCAAUCAACUCUUUCUCAGGAGUUUACUCCUGCAAACUCAACAGCUCGCAGUCAAG | 0.177
GGUCACGUCUCAAUCAACUCAUCCUCCAGGGAAAACCCUGGCAAACUCAACAGCUCGCAGUCAAG | -0.0263
GGUCACGUCUCAAUCAACUCGUCUUCAGGAGUUUACUCCUGUUUUUUCAACAGCUCGCAGUCAAG | -0.318
GGUCACGUCUCAAUCAACUCAUUCUCAGGAGUUUGCUCCUGUUUUCUCAACAGCUCGCAGUCAAG | 0.0431
GGUCACGUCUCAAUCAACUCAUCCUCCAGGGAAACCCCUGGCUAUUUCAACAGCUCGCAGUCAAG | 0.363
GGUCACGUCUCAAUCAACUCAAUCCCCAGGGAAAUCCCUGGUUUUUUCAACAGCUCGCAGUCAAG | -0.203
GGUCACGUCUCAAUCAACUCAAUCCCAGGAGUUUGCUCCUGCUAAUUCAACAGCUCGCAGUCAAG | 0.218
GGUCACGUCUCAAUCAACUCAUCGUCCAGGGAAACCCCUGGUUUUUUCAACAGCUCGCAGUCAAG | -0.521
GGUCACGUCUCAAUCAACUCUAUCUCCAGGGAAAACCCUGGCAAUGUCAACAGCUCGCAGUCAAG | 0.174
GGUCACGUCUCAAUCAACUCUUUAGAGGGGGGGAAAACCCCUUUACCCUCACUAUCAACAGCUCGCAGUCAAG | -0.273
GGUCACGUCUCAAUCAACUCAAUCCCAGGAGUUUCCUCCUGCAAACUCAACAGCUCGCAGUCAAG | 0.257
GGUCACGUCUCAAUCAACUCCAUAGAGGGGGGGAAAACCCCUUUACCCUCACUUUCAACAGCUCGCAGUCAAG | 0.0449
GGUCACGUCUCAAUCAACUCUACUCCCAGGGAAAUCCCUGGCAUUUUCAACAGCUCGCAGUCAAG | 0.0133
GGUCACGUCUCAAUCAACUCAAUUUCAGGAGUUUGCUCCUGCUAACUCAACAGCUCGCAGUCAAG | -0.0757
GGUCACGUCUCAAUCAACUCUUCCCCAGGAGUUUCCUCCUGUAAUUUCAACAGCUCGCAGUCAAG | 0.000716
GGUCACGUCUCAAUCAACUCUAAGGAGGGGGGGAAAACCCCUUUACCCUCAACCUCAACAGCUCGCAGUCAAG | -0.0488
GGUCACGUCUCAAUCAACUCAUCUUCAGGAGUUUUCUCCUGCUAACUCAACAGCUCGCAGUCAAG | 0.0484

Sequence | binding signal (log2 fold change)
GGUCACGUCUCAAUCAACUCAUCGCCAGGAGUUUUCUCCUGUAUUUUCAACAGCUCGCAGUCAAG | -0.0404
GGUCACGUCUCAAUCAACUCUUUCCCAGGAGUUUUCUCCUGUUUACUCAACAGCUCGCAGUCAAG | -0.0311
GGUCACGUCUCAAUCAACUCUUCUUCAGGAGUUUACUCCUGUAAUUUCAACAGCUCGCAGUCAAG | -0.108
GGUCACGUCUCAAUCAACUCUACUCCCAGGGAAAUCCCUGGCAUAUUCAACAGCUCGCAGUCAAG | 0.29
GGUCACGUCUCAAUCAACUCAAAAGAGGGGGGGAAAACCCCUUUGCCCUCCAAUUCAACAGCUCGCAGUCAAG | -0.306
GGUCACGUCUCAAUCAACUCAUGUCCAGGAGUUUACUCCUGCUUUCUCAACAGCUCGCAGUCAAG | -0.172
GGUCACGUCUCAAUCAACUCUACUCCCAGGGAAACCCCUGGUUAACUCAACAGCUCGCAGUCAAG | -0.174
GGUCACGUCUCAAUCAACUCCAUCGAGGGGGGGAAAACCCCUUUACCCUCAAUCUCAACAGCUCGCAGUCAAG | -0.222
GGUCACGUCUCAAUCAACUCUACUUCCAGGGAAAUCCCUGGUUAACUCAACAGCUCGCAGUCAAG | 0.0736
GGUCACGUCUCAAUCAACUCCUUAGAGGGGGGGAAAACCCCUUUGCCCUCCAUUUCAACAGCUCGCAGUCAAG | -0.0182
GGUCACGUCUCAAUCAACUCAUCUUCCAGGGAAAUCCCUGGCAUAUUCAACAGCUCGCAGUCAAG | 0.29
GGUCACGUCUCAAUCAACUCAUUCCCAGGAGUUUUCUCCUGUAGUCUCAACAGCUCGCAGUCAAG | 0.0931
GGUCACGUCUCAAUCAACUCAACUCCAGGAGUUUCCUCCUGCAUACUCAACAGCUCGCAGUCAAG | 0.0523
GGUCACGUCUCAAUCAACUCUUCGUCCAGGGAAAGCCCUGGCAUUUUCAACAGCUCGCAGUCAAG | -0.281
GGUCACGUCUCAAUCAACUCUUCCCCAGGAGUUUACUCCUGUUUAUUCAACAGCUCGCAGUCAAG | 0.121
GGUCACGUCUCAAUCAACUCUUCGCCCAGGGAAAUCCCUGGUAAAUUCAACAGCUCGCAGUCAAG | -0.146
GGUCACGUCUCAAUCAACUCAAGUCCCAGGGAAAGCCCUGGUUAAUUCAACAGCUCGCAGUCAAG | -0.126
GGUCACGUCUCAAUCAACUCAAUUUCCAGGGAAAGCCCUGGCUUUUUCAACAGCUCGCAGUCAAG | 0.267
GGUCACGUCUCAAUCAACUCCUUAGAGGGGGGGAAAACCCCUUUACCCUCGUAUUCAACAGCUCGCAGUCAAG | 0.186
GGUCACGUCUCAAUCAACUCUAUUUCAGGAGUUUUCUCCUGCAAUUUCAACAGCUCGCAGUCAAG | 0.0578
GGUCACGUCUCAAUCAACUCUCCCGAGGGGGGGAAAACCCCUUUACCCUCAAUUUCAACAGCUCGCAGUCAAG | -0.503
GGUCACGUCUCAAUCAACUCUAUUUCCAGGGAAAUCCCUGGCUAUCUCAACAGCUCGCAGUCAAG | -0.119
GGUCACGUCUCAAUCAACUCUUCCUCCAGGGAAAACCCUGGCAUUUUCAACAGCUCGCAGUCAAG | 0.00668
GGUCACGUCUCAAUCAACUCAUCCCCAGGAGUUUUCUCCUGCUUAUUCAACAGCUCGCAGUCAAG | 0.138
